Source: PubChem BioAssay AID1508642 (National Center for Advancing Translational Sciences (NCATS), 2021)
The campaign covered roughly 43,000 compounds. About 200 (0.47%) were called active. Another 12% or so got no clear call; they are omitted. Calls come from the whole dose curve; as a rule, active = well fitted cell-killing curve with a large enough effect; inconclusive = small, poorly fitted or top-dose-only effect, or effect the other way; inactive = flat fitted curve, though single readings scatter. Some of the results follow.

assay: Cell viability qHTS assay in S16 Pmp22-F2sN cells; settings: S16 Pmp22-F2sN Schwann cells viability, CellTiter-Glo, 24 h; series mostly up to 57.5 µM; activity change, negative = cytotoxicity: at the top concentration; note: nearly all actives have a fitted effect of over 65% in size
Outline: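 Used to flag compounds lowering reporter output through toxicity, this quantitative HTS measures ATP-based CellTiter-Glo luminescence in S16 Pmp22-F2sN Schwann cells after 24 h compound exposure at 37C.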
% is set by controls: 0 for no effect and ±100 for the full control effect; potency is the fitted concentration of half-maximal effect.

Compound | activity change, negative = cytotoxicity | Potency
COc1cc(CNCCSc2nnnn2C)ccc1OCc1ccccc1 | inactive: 6.15% | –
COc1ccc(N2CCN(C(=O)c3c(C)oc4ncn(CC(C)C)c(=O)c34)CC2)cc1 | inactive: 4.17% | –
COC(=O)c1ccc(NC(=O)C(C)N2Cc3ccccc3C2=O)cc1 (configuration not stated) | inactive: 3.15% | –
Cc1ccc2nc3sc(C(=O)Nc4ccc(F)cc4)cc3cc2c1 | inactive: 2.16% | –
CN(C(=O)CSc1nc2ccc(NC(=O)c3ccco3)cc2s1)c1ccccc1 | inactive: -19.8% | –
CCc1ccccc1NC(=O)c1nnn(CC(=O)Nc2c(C)cc(C)cc2C)c1N | inactive: 0.785% | –
Cc1cc(C)c2c(NC(=O)c3ccccc3Cl)c(C(=O)Nc3ccc(C)c(C)c3)sc2n1 | inactive: 0.834% | –
Cc1ccc(CNC(=O)c2cnc(N3CCCC3)nc2C)cc1 | inactive: 0.68% | –
Cc1ccc(N2CCN(S(=O)(=O)c3nnc(NC(=O)c4cccc(F)c4)s3)CC2)cc1 | inactive: 1.79% | –
CCc1ccc(NC(=O)C2CCN(c3ccc(Sc4ccc(C)cc4)nn3)CC2)cc1 | inactive: 1.77% | –
COc1ccc(CCNC(=O)Cn2c(=O)cc(C(F)(F)F)c3c(C)nn(C)c32)c(OC)c1 | inactive: 8.04% | –
CCOc1cc(CNC(=O)c2cc(-c3ccc(Cl)s3)nc3ccccc23)ccc1OC | inactive: 13.3% | –
COc1ccc(NC(=O)CNC(=O)Cn2ccc3ccccc3c2=O)c(OC)c1 | inactive: 3.06% | –
O=C(Cn1cccc1C(=O)c1ccccc1)NCc1ccc(Cl)cc1 | inactive: 13.7% | –
Cc1ccc(N2CC(C(=O)NCCS(=O)(=O)N3CCN(c4ccc(F)cc4)CC3)CC2=O)cc1 (configuration not stated) | inactive: -2.28% | –
O=C(CCSCc1cccc(F)c1)NCCc1ccccc1 | inactive: 0.0549% | –
O=C(CCSCCc1ccccn1)Nc1ccccc1C(F)(F)F | inactive: 5.01% | –
CCc1ccccc1NC(=O)Cn1cc(C(=O)c2ccncc2)c(=O)c2cc(C)ccc21 | inactive: 5.15% | –
COc1ccc(CCNC(=O)c2cc(-c3ccc(C)cc3)nc3n[nH]c(-c4ccc(F)cc4)c23)cc1OC | inactive: -14.4% | –
Cc1ccc(-n2ncc3c(NCCc4ccccc4)ncnc32)cc1Cl | inactive: 2.22% | –
O=C(COCc1cc(-c2ccc(F)cc2)on1)Nc1cc(Cl)cc(Cl)c1 | inactive: 19.6% | –
COc1cccc(Cn2c(=O)n(-c3cc(C)cc(C)c3)c(=O)c3oc4ccccc4c32)c1 | inactive: -4.06% | –
Cc1ccc2c(=O)c(C(=O)c3cccc(Cl)c3)cn(CC(=O)NCc3ccccc3)c2n1 | – | active: 10 µM
CCC(CC)C(=O)Nc1cccc(-c2cn3cccnc3n2)c1 | inactive: 2.17% | –
Cc1c(Cl)cccc1-c1ccc(C(=O)Nc2ccc3oc(-c4cccnc4)nc3c2)o1 | inactive: -1.21% | –
COCCCNc1oc(-c2ccc(COc3ccccc3C)o2)nc1C#N | inactive: -15.7% | –
COc1cc(OC)c(NC(=O)Cn2c(=O)nc(-c3ccccc3)c3ccccc32)cc1Cl | inactive: 14.2% | –
